According to article PMC2642980 (Bioorganic & medicinal chemistry letters, 2008):

Columns and labels:
[1] = rat, tissue homogenate
[2] = rat, tissue homogenate; remark: listed apart in the source

1-Beta-D-arabinofuranosyladenine [Vidarabine]
T1/2 Intestinal homogenate [1]: 3 min | T1/2 Liver homogenate [2]: 15 min
